Data reported in the supplement of paper PMC4166925.
± gives the standard deviation of the averaged measurements. In all, about 33,000 sequences were measured (“E-score (dimensionless, -0.5 to 0.5)”: median about -0.046, highest 2% from about 0.36 on). The list shows a part of the results.

Tested on: T1, SpTbr T-box DNA-binding domain (GST fusion)
T1 sequence: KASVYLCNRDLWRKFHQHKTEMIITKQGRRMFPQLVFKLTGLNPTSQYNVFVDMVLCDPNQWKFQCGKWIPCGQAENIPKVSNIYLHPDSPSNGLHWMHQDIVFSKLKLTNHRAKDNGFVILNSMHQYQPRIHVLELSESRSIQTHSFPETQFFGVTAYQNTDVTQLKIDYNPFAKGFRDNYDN
Assay: PBM E-score of 8-mer (E-score (dimensionless, -0.5 to 0.5)); Tbr is Tbrain of the sea star Patiria miniata (Pm) or the sea urchin Strongylocentrotus purpuratus (Sp); higher = stronger binding preference; most listed sequences are background and not binding sites
Details: the construct has about 5 more residues each side
Experimental: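 Universal protein-binding microarray (Agilent AMADID 016060, 60-bp probes with a 35-bp variable region) incubated with 200 nM GST-fused Strongylocentrotus purpuratus Tbr T-box DNA-binding domain (residues 362-554) in PBS pH 7.5. Scored for every ungapped 8-mer (given with its reverse complement) as E-score (range -0.5 to 0.5; >0.45 counts as bound) and Z-score of median probe intensity. Two replicate arrays (datasets 1 and 2).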
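Further: protein at 200 nM in PBS on universal double-stranded arrays.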

Sequence	PBM E-score of 8-mer
CGTAACTC	-0.134 ± 0.057
CATACCAC	0.0608 ± 0.012
CCGCGTGC	0.129 ± 0.15
CGAGAGAG	0.0904 ± 0.028
GGCGGCCC	-0.177 ± 0.0053
AACATTCA	-0.0456 ± 0.036
GTCGTTGA	0.108 ± 0.026
CCATTAGG	-0.272 ± 0.042
CGAACGAG	0.0552 ± 0.067
AATACGAC	0.0331 ± 0.0058
AGCGGCTC	0.0237 ± 0.003
AATCTGGA	-0.326 ± 0.099
GGCCATAA	-0.0646 ± 0.045
CCGGATAC	-0.202 ± 0.034
AATACATC	-0.129 ± 0.052
ACTTACTA	-0.158 ± 0.036
CTTTCTAA	-0.187 ± 0.023
ATACCCCA	-0.156 ± 0.069
AGGATCAA	-0.2196 ± 0.00077
ATAATCTG	-0.135 ± 0.012
AAATCCCT	-0.104 ± 0.071
ACCCCACC	-0.0217 ± 0.12
CAAGATCA	-0.0232 ± 0.022
CGACTCAG	0.0215 ± 0.028
GCAAGGTA	-0.0328 ± 0.0042

Sequence	PBM E-score of 8-mer
CAGCCCCA	-0.03 ± 0.0063
CCTATGAA	-0.211 ± 0.019
GGATACAA	0.0747 ± 0.011
TGGGGACA	-0.0363 ± 0.01
GAGTCTCA	0.0256 ± 0.034
AGACATTA	-0.121 ± 0.013
CAAAGGCG	0.124 ± 0.017
ATTGTGAA	0.317 ± 0.067
CCTTAAAC	-0.152 ± 0.018
CGGACCGA	-0.161 ± 0.02
ACCTCACA	0.41113 ± 4.2e-05
CACCGCGG	0.00256 ± 0.0018
ACCTCGAG	0.174 ± 0.04
CATTATTA	-0.0139 ± 0.015
CGGTTCCC	-0.179 ± 0.036
GGGACAAA	-0.149 ± 0.042
CTCCAGAC	-0.0344 ± 0.063
TAGGTTAA	-0.244 ± 0.038
CAACCGCC	-0.00536 ± 0.012
CTTATGTC	-0.115 ± 0.084
TCCGTTAA	-0.0135 ± 0.015
AAGCGCTT	0.0436 ± 0.059
CCGTATAC	-0.0858 ± 0.014
CCGAGACA	-0.0213 ± 0.11
ATCCGGTG	-0.0513 ± 0.016

Sequence	PBM E-score of 8-mer
CATGGCCC	-0.225 ± 0.024
CTATAGCC	-0.141 ± 0.062
CGGTGCAC	-0.0243 ± 0.0037
ACTATTCA	-0.127 ± 0.038
AGAGCTAC	-0.2216 ± 0.00082
ATTCAGAA	-0.215 ± 0.0069
CGGCACTC	0.0723 ± 0.09
CCGAAGGA	-0.297 ± 0.034
CACGATCC	0.0869 ± 0.011
AGGGGCCC	-0.238 ± 0.011
GCACAAGC	0.0181 ± 0.00073
CTAATTAG	0.0537 ± 0.015
TGATAGCA	0.243 ± 0.0086
CTGTCCGC	-0.114 ± 0.015
AAATGATA	-0.124 ± 0.082
ATGTAAAT	-0.102 ± 0.023
GACTTTCA	0.0938 ± 0.012
GACAACCC	0.108 ± 0.07
AGCGGATG	-0.173 ± 0.11
ATACACGG	-0.0947 ± 0.0036
ACCTGCGT	0.12 ± 0.0061
CGCATACG	-0.104 ± 0.077
CCTTAAGG	0.0534 ± 0.028
ATCAGTCC	0.0219 ± 0.035
GGGTTGAA	-0.00971 ± 0.043

Sequence	PBM E-score of 8-mer
CGCTAGGA	0.0877 ± 0.053
GAAGTAGC	-0.0175 ± 0.059
AACCACAT	-0.165 ± 0.013
GATGGGGA	-0.0619 ± 0.011
GTGGCCAA	0.12 ± 0.022
GGCCTTTA	-0.26 ± 0.032
GGGAATCA	-0.00442 ± 0.0086
CAAAGCCG	0.0955 ± 0.059
ACAAAAGT	-0.0136 ± 0.026
TAAAGGCA	-0.185 ± 0.042
AAGGGACG	-0.146 ± 0.013
CGAGTAGA	-0.234 ± 0.0044
ACAAAATC	0.148 ± 0.037
ACTTGATG	0.129 ± 0.055
CAGCGCCG	0.149 ± 0.031
CCCCTTCG	-0.137 ± 0.046
GCACATAA	0.282 ± 0.01
CCAGGTAC	-0.149 ± 0.029
AACCTGCC	-0.0535 ± 0.017
CGGAGAAA	-0.0147 ± 0.059
CAGCAGAC	-0.043 ± 0.056
CCGTGTCC	-0.0848 ± 0.067
ACGTATCA	0.0221 ± 0.048
CCAGGTAA	0.0245 ± 0.028
AACTAATA	-0.0137 ± 0.07

Sequence	PBM E-score of 8-mer
TAGAGTAA	-0.0928 ± 0.027
AGATCAAG	-0.289 ± 0.051
AAGGTTCG	-0.0755 ± 0.073
GTTGGCAA	0.275 ± 0.037
TATGTGAA	0.17 ± 0.07
GCCTAACC	-0.292 ± 0.008
CAAAGTCC	-0.143 ± 0.034
TCCCGAAA	-0.148 ± 0.096
AATCGCCA	0.172 ± 0.044
AGTGGTAT	0.00231 ± 0.046
TCAAGGAA	-0.0393 ± 0.033
AAGAGTGC	0.122 ± 0.11
ACAAGTAT	0.153 ± 0.033
AATTTGGT	-0.0656 ± 0.0083
ATGCTCCG	-0.0668 ± 0.061
ACCACCCA	-0.121 ± 0.0061
AGACTTAC	-0.168 ± 0.013
AATGGATG	-0.0718 ± 0.025
ACAGGTAA	0.0693 ± 0.0017
ACACAACA	0.251 ± 0.055
AATGTTTC	-0.194 ± 0.021
GTTCTGGA	-0.184 ± 0.062
CTTCCCAA	0.102 ± 0.031
GATATAAC	0.135 ± 0.066
GTGGGGGA	0.163 ± 0.1

Sequence	PBM E-score of 8-mer
ATCACCCG	0.12 ± 0.057
CGATTGGC	0.0154 ± 0.064
CTCGTCCC	-0.27 ± 0.048
CTCCAGCC	-0.22 ± 0.077
ATTATTTG	-0.0481 ± 0.057
ACCTTTCG	0.218 ± 0.035
GAGTCCGA	-0.197 ± 0.018
GCCTAAGA	-0.128 ± 0.039
GTGACTAA	0.132 ± 0.027
ACCCACGA	0.0353 ± 0.086
GAGGCTGA	-0.088 ± 0.064
ATATCTCA	0.0496 ± 0.054
GGCGAGTA	-0.0549 ± 0.0083
TACGAGTA	-0.0745 ± 0.028
AAGTAAGC	0.0285 ± 0.0043
CCGAGGTC	-0.056 ± 0.0086
TCTCCTCA	0.0194 ± 0.054
GGAGTCTA	-0.3069 ± 0.002
ATCCTTAA	-0.213 ± 0.12
ACATGGCC	-0.178 ± 0.071
ACAACCTA	0.0497 ± 0.034
TTGACCAA	-0.091 ± 0.022
ACGAGTCG	0.143 ± 0.0067
CGAAGGAG	-0.101 ± 0.069
CGTAACAA	0.0582 ± 0.022

Sequence	PBM E-score of 8-mer
ATAAACTA	-0.125 ± 0.064
GAGAGACC	-0.14 ± 0.014
ACTCGAAA	0.0211 ± 0.025
ACGTCCGC	0.148 ± 0.045
TACATCTA	-0.1835 ± 0.00045
ACAACCGT	0.153 ± 0.0027
GTCTCTGA	-0.296 ± 0.031
CGCTTTAA	-0.169 ± 0.035
AATGTCAC	0.237 ± 0.025
ATTCTGTC	0.04 ± 0.016
ACATAGCT	-0.119 ± 0.059
GTTGTCAA	0.3671 ± 0.0033
GGAATACC	-0.131 ± 0.045
AGAAAACC	-0.00144 ± 0.037
GCTATTAA	0.155 ± 0.1
CCCGGTCA	-0.0266 ± 0.01
GCACATGA	0.164 ± 0.041
TCACTTAA	0.215 ± 0.02
ACCATTAG	-0.0362 ± 0.048
GTAATACA	-0.158 ± 0.041
ATATTGAC	0.000605 ± 0.011
AAGCCCCT	-0.221 ± 0.016
